Laboratory results as given in PubChem BioAssay AID504332 (National Center for Advancing Translational Sciences (NCATS), 2011).
Among all 350,000 compounds or so, about 31,000 (8.9%) were called active. The inconclusive results got no clear call from the source; some entries with a clear call stand among them for comparison. The call rests on the fitted dose curve; in most records, active means well fitted inhibition curve with a large enough effect; inconclusive means small, poorly fitted or top-dose-only effect; inactive means no such curve, though single readings can be large or run the other way. Where the call is inconclusive, the potency comes from a doubtful curve fit.
Further: nearly all actives have a fitted effect of over 75% in size.
On the % scale 0 is the no-effect control and ±100 the full control effect; potency means the concentration at half of the fitted maximal effect; tags describe the fitted curve by direction and shape.

What follows are compounds tested against Histone-lysine N-methyltransferase EHMT2 (Homo sapiens) (UniProt Q96KQ7) (assay: qHTS Assay for Inhibitors of Histone Lysine Methyltransferase G9a). Settings: G9a H3K9 monomethylation, AlphaScreen, 2 h; activity, negative = inhibition: at 59 µM (top of the series) unless noted.
UniProt Q96KQ7, sequence (Q96KQ7 whole entry, looked up): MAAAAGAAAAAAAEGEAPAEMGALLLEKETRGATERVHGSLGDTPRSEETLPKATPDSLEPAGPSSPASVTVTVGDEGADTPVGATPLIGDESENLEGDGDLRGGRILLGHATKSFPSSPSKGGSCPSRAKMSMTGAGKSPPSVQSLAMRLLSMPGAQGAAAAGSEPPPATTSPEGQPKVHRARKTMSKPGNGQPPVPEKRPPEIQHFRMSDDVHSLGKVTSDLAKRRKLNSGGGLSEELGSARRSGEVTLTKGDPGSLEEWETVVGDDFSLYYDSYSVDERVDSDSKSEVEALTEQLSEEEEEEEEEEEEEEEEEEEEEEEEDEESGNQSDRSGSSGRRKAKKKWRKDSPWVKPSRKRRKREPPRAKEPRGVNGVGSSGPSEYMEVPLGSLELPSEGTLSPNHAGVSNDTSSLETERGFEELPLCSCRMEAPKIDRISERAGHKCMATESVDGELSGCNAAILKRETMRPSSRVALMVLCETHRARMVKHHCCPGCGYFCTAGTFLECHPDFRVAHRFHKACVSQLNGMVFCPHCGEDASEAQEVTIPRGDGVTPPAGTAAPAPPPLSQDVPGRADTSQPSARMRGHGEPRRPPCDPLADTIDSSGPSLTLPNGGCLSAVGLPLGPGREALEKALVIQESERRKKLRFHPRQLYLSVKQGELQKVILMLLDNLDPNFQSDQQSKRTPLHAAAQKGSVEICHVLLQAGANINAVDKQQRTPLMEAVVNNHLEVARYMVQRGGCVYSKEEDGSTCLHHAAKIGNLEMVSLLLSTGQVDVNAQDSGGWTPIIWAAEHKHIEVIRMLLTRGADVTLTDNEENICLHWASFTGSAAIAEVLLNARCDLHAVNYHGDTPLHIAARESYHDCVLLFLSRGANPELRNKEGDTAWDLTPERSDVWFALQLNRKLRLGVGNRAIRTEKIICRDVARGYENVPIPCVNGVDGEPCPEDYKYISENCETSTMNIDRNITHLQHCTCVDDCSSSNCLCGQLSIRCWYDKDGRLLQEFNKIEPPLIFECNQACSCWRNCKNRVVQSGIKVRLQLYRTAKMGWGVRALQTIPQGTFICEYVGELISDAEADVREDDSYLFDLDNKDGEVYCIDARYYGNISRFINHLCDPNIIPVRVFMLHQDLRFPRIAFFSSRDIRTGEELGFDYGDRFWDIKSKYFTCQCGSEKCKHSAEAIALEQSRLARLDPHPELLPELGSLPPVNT
Method in brief: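 Compounds were preincubated with 20 nM G9a for 15 min, after which biotinylated H3K9 peptide (500 nM) and SAM (20 uM) started a 2 h room-temperature reaction. Monomethylated product was quantified by antibody-based AlphaScreen chemiluminescence.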
For CCOC(=O)c1c(Nc2ccc(OC)cc2)nnc(-c2ccccc2)c1-c1ccccc1, the Potency was active: 7.94 µM.
O=C(O)c1cc2c(cc1NC(=O)c1c(F)cccc1F)OCCCO2 was tested, and the Potency was inconclusive: 89.1 µM [inhibitor, single point].
With Cc1cccc(NC(=O)NCc2ccc3[nH]c(C)cc3c2)c1 the Potency was inconclusive: 89.1 µM [inhibitor, partial curve, poor fit].
For O=C(CCCCCn1c(=S)[nH]c2ccsc2c1=O)NC1CCCCC1, the Potency was active: 10 µM.
COc1ccc(Nc2c(-c3cccc(O)c3)nc3cnccn23)cc1 was tested, and the Potency was inconclusive: 39.8 µM [inhibitor, partial curve, poor fit].
With CCC(=O)c1ccc(OCC(O)CNC(C)c2ccccc2)cc1 (centres undefined) the Potency was inconclusive: 79.4 µM [inhibitor, single point].
O=C(NCCCN1CCOCC1)c1ccc2c(=O)n(CCc3ccccc3)c(=O)[nH]c2c1 was tested, and the activity, negative = inhibition was inactive: -2.4% [at 12.7 µM].
CCn1c(SCC(=O)N/N=C/c2ccccc2OCC(=O)O)nnc1-c1ccc(OC)cc1 was tested, and the “activity, negative = inhibition” value was inactive: -22.6% [at 102 µM].
With COCCNC(=O)c1ccc(CS(=O)(=O)c2ccc(C)cc2)o1 the Potency was inconclusive: 89.1 µM [inhibitor, single point].
Cc1cccc2c1cnn2C(=O)Nc1ccccc1Cl was tested, and the Potency was inconclusive: 0.631 µM [inhibitor, partial curve, poor fit].
For Cc1ccc(S(=O)(=O)Nc2ccc(SC(F)F)cc2)c(C)c1, the “activity, negative = inhibition” value was inactive: -11.2%.
With CC(=O)c1ccc(N2CCN(C(=O)C3CCN(S(=O)(=O)c4cn(C)cn4)CC3)CC2)cc1 the activity, negative = inhibition was inactive: -1.79% [at 12.7 µM].
With O=C(NC(=S)NC1CCCc2ccccc21)c1ccc(F)cc1 (centres undefined) the “activity, negative = inhibition” value was inactive: -22% [at 102 µM].
In the case of CCCOc1ccc(-c2nc(SCC(=O)c3ccc(Cl)cc3)n[nH]2)cc1, the Potency is reported as active: 14.1 µM.
For CCCCC(CCCC)=N/N=C/c1c(O)n(CC)c2cc(C3=NNC(=O)CC3)ccc12, the Potency was inconclusive: 28.2 µM [inhibitor, single point].
Cc1ccc(Cl)cc1Nc1nn2c(=O)c3ccc(C(=O)NCc4ccc(F)cc4)cc3nc2s1 was tested, and the “activity, negative = inhibition” value was inactive: -6.05%.
With CCOc1ccc(CNC(=O)Cc2ccc(NC(=O)N3CCSc4ncccc43)cc2)cc1 the “activity, negative = inhibition” value was inactive: -5.77%.
For Cc1cccc(-c2nc3scc(CCNS(=O)(=O)c4ccc5c(c4)OCCO5)n3n2)c1, the “activity, negative = inhibition” value was inactive: -21.2%.
For CCC(=O)N(Cc1cc(=O)[nH]c2ccccc12)C1CCCCC1, the “activity, negative = inhibition” value was inactive: -3.4% [at 102 µM].
With O=C(NCc1ccco1)c1cccc(S(=O)(=O)N2CCCCC2)c1 the Potency was inconclusive: 31.6 µM [inhibitor, single point].
With CCOc1ccc(N=Cc2c(O)n(-c3cccc(C)n3)c(=O)c3ccccc23)cc1 the “activity, negative = inhibition” value was inactive: 5.98% [at 102 µM].
O=C(COC(=O)/C=C/c1ccco1)NCc1ccccc1 was tested, and the Potency was inconclusive: 44.7 µM [inhibitor, partial curve, poor fit].
For CCOC(=O)c1nc(C)n(-c2ccc(Cl)cc2Cl)n1, the Potency was inconclusive: 28.2 µM [inhibitor, partial curve, poor fit].
For O=C(CC(=O)c1ccccc1)Nc1cc(C(F)(F)F)ccc1Cl, the “activity, negative = inhibition” value was inactive: 41.3%.
For O=C(COc1ccccc1)NNC(=S)NC(=O)c1ccccc1, the Potency was active: 2.24 µM.
With CO[C@H]1C[C@@H]2CC[C@@H](C)[C@@](O)(O2)C(=O)C(=O)N2CCCC[C@H]2C(=O)O[C@H]([C@H](C)C[C@@H]2CC[C@@H](OCCO)[C@H](OC)C2)CC(=O)[C@H](C)/C=C(\C)[C@@H](O)[C@@H](OC)C(=O)[C@H](C)C[C@H](C)/C=C/C=C/C=C/1C the activity, negative = inhibition was inactive: -37.8% [at 12.7 µM].
With O=C(CSc1nccn(-c2ccc(F)c(Cl)c2)c1=O)NC1CCCC1 the Potency was inconclusive: 3.16 µM [inhibitor, full curve, poor fit].
CCCS(=O)(=O)N1CCN(CC2CC3C=CC2C3)CC1 (centres undefined) was tested, and the Potency was active: 5.62 µM.
With COC(=O)c1ccccc1NC(=S)NC(=O)C1CCCCC1 the Potency was inconclusive: 7.94 µM [inhibitor, full curve].
In the case of COc1ccc(CNC(=O)CSc2nccn(-c3ccc(F)c(F)c3)c2=O)cc1, the Potency is reported as inconclusive: 50.1 µM [inhibitor, partial curve, poor fit].
With COc1cccc(NC(=O)Cn2cc(C(=O)c3ccc(C)cc3)c(=O)c3cc(OC)ccc32)c1 the Potency was inconclusive: 8.91 µM [inhibitor, partial curve, poor fit].
CCOC(=O)c1[nH]c2ccc(OC)cc2c1NC(=O)N1CCOCC1 was tested, and the Potency was active: 50.1 µM.
CC1(C)Cc2nc3sc4c(N5CCCC5)nnnc4c3cc2CO1 was tested, and the “activity, negative = inhibition” value was inactive: 21.3% [at 102 µM].
For COCCNC(=O)c1ccc(CS(=O)(=O)c2ccccc2)o1, the Potency was inconclusive: 89.1 µM [inhibitor, single point].
For O=C(CN1CCN(c2ccccc2O)CC1)Nc1cccnc1Cl, the Potency was inconclusive: 63.1 µM [inhibitor, single point].
In the case of O=C(CSc1nnc(NC(=O)C2CC2)s1)NCc1cccs1, the “activity, negative = inhibition” value is reported as inactive: 12.6% [at 102 µM].
In the case of Cc1cc(N2CCC(N(C)C3CCCC3)CC2)nc2cc(O)ccc12, the Potency is reported as inconclusive: 0.891 µM [inhibitor, full curve, poor fit].
With Cc1ccc(OCc2cc(C(=O)N(C)Cc3nccn3C)no2)cc1C the Potency was inconclusive: 89.1 µM [inhibitor, single point].
With O=C(CCN1C(=O)CSc2ccccc21)Nc1cccc(C(F)(F)F)c1 the activity, negative = inhibition was inactive: 19.7% [at 2.33 µM].
With Cc1nc(C(=O)NNC(=O)c2ccc(C(F)(F)F)cc2)cs1 the Potency was inconclusive: 0.794 µM [inhibitor, full curve, poor fit].
With CN1CCN(Cc2cc(COCc3ccccc3)c3cccnc3c2O)CC1 the Potency was inconclusive: 17.8 µM [inhibitor, single point].
Cc1cccc(-n2ccnc2SCC(=O)Nc2nnc(C)s2)c1 was tested, and the Potency was inconclusive: 89.1 µM [inhibitor, single point].
With O=C(/C=C/c1ccco1)NCCCN1CCOCC1 the activity, negative = inhibition was inactive: 2.37% [at 12.7 µM].
For Cc1ccc(/C=N/n2cc(-c3ccccc3)[nH]c2=S)s1, the Potency was inconclusive: 0.794 µM [inhibitor, full curve, poor fit].
